Several values for one entry are separate records, joined by “and”; a condition that tells them apart may be missing. Equal entries are not always repeated. Out of some 48,000 compounds screened, about 1,200 (2.5%) were called active. About 2% were inconclusive and are not listed.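 The calls were made as follows: active = activation of at least 60% and not above a set upper limit (about 1 call in 100 departs from these limits); inconclusive = activation of 40% to 60%, or above that upper limit; inactive = activation under 40%.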 The list shows a part of the results.

The test addresses Probable G-protein coupled receptor 32 (Homo sapiens) (UniProt O75388). As to the kind of experiment: qHTS for Agonists of Human Resolvin D1 Receptor DRV1. Also: 0% is about no effect. To be noted: CHO-K1 GPR32 beta-arrestin PathHunter luminescence, 90 min; at 76.9 µM; hits give high values; zero percent set by DMSO-only wells. An outline of the steps: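 CHO-K1 cells stably expressing ProLink-tagged GPR32 and Enzyme Activator-tagged beta-arrestin were seeded at 2,500 cells/well overnight, exposed to compounds for 90 min at 37 °C, then read by beta-Gal complementation chemiluminescence after 1 h detection reagent.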
Chain of UniProt O75388 (O75388 whole entry, looked up): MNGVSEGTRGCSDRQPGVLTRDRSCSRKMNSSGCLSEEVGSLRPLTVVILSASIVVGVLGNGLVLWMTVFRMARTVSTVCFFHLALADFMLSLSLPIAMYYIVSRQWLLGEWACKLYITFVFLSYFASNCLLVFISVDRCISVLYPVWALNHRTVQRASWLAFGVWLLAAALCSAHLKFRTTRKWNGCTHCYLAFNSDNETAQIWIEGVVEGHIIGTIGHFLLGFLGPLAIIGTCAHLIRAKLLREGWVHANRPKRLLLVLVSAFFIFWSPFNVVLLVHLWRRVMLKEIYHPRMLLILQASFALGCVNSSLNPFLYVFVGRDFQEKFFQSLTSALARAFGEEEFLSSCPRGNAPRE
Turning to `COc1ccc(OC)c(C2CC(=O)c3c([nH]c(C(=O)OC4CCC(C)CC4)c3C)C2)c1` (configuration not stated), the activation was inactive: -12%.
On to `COc1cc(NC(=O)c2cc(-c3ccc4c(c3)OCO4)on2)cc(OC)c1OC`, for which the activation is inactive: 34%.
The value for `COc1ccc(-c2cc(C)no2)cc1S(=O)(=O)NCc1ccc(OC(C)C)cc1` was inactive: -8.01%; that for `COc1ccc(N2CCN(CCCNC(=O)C3COc4ccc(OC)cc4C3)CC2)cc1` (configuration not stated) was inactive: -11.7%; that for `CCc1cccc2c(-c3ccccc3)nc(SCC(=O)Nc3ccccc3)nc12` was inactive: -12.4%.
The value for `COc1ccc2c(CNCc3ccc(Cl)cc3)c(C(=O)O)n(Cc3ccccc3C)c2c1` was inactive: -8.47%.
Regarding `Cc1cccc(Nc2nnc(-n3nc(C)cc3C)c3ccccc23)c1`, the activation was inactive: 2.33%.
Regarding `O=C(Cn1cc(SCc2ccc(C(F)(F)F)cc2)c2ccccc21)N1CCCCC1`, the activation was inactive: -26.1%.
The value for `CC(CC(=O)NCc1ccc(Cl)cc1)CC1=NS(=O)(=O)c2ccccc2N1` (configuration not stated) was inactive: 2.96%; that for `COc1ccc(NC(=O)c2cnn(-c3ccc(C)cc3)c2-n2cccc2)cc1Cl` was inactive: -17.3%.
Consider `Cc1c(-c2nsc(NC(=O)c3ccc(Cl)cc3)n2)nnn1-c1ccc(C(C)C)cc1`, for which the activation was inactive: 1.46%.
Take `CC(=O)c1ccc(N2CCN(c3nc4c(S(=O)(=O)c5ccccc5)nnn4c4ccc(Cl)cc34)CC2)cc1`: the activation is inactive: -5.7%.
Consider `COc1ccc(S(=O)(=O)c2cn(C)c3cc(N4CCCCC4)c(F)cc3c2=O)cc1`, for which the activation is inactive: 1.86%.
As for `O=C(NC1CC(=O)N(c2ccccc2)C1)C1CCCCC1` (configuration not stated), the activation was inactive: 2.87%.
In the case of `Cc1cc(Br)ccc1NC(=O)c1cc2c(=O)n(C)c3cc(Cl)ccc3c2s1`, the activation is inactive: 15.4%.
The value for `Cc1cc(C)cc(NC(=O)CSc2nccn2-c2ccccc2)c1` was inactive: -6.13%.
The value for `Cc1cccc2nc(-c3cccnc3)c(Nc3ccc(C(C)C)cc3)n12` was active: 61.3%.
The value for `COc1ccc(NC(=O)C2=C(C)Nc3nc(SCc4ccccc4C)nn3C2c2ccc(Br)cc2)cc1` (configuration not stated) was inactive: 2.9%; that for `NCCCC[C@H](N[C@@H](CCc1ccccc1)C(=O)O)C(=O)N1CCC[C@H]1C(=O)O` was inactive: 20%; that for `Cc1cccc(NC(=O)C2CCN(S(=O)(=O)c3cccc4nsnc34)CC2)c1C` was inactive: 10.2%.
For `Cc1ccc(-c2noc(CNC(=O)c3ccc(C(C)(C)C)cc3)n2)cc1`, the activation was inactive: -14.9%.
For the molecule `COC(=O)c1cc2oc3ccccc3c2n1CC(=O)Nc1ccc(OC)c(OC)c1OC`, the activation is inactive: -3.86%.
The value for `COc1ccccc1CNC(=O)CN1C(=O)CSc2ccc(S(=O)(=O)N3CCCC3)cc21` was inactive: -25.1%.
On to `c1ccc2c(c1)CCC[C@H]2Nc1nc2ccccc2[nH]1`, for which the activation is inactive: 6.6%.
The value for `CC(C)Oc1ccc(CNC(=O)C2CCN(C(=O)c3sccc3-n3cccc3)CC2)cc1` was inactive: -12.1%; that for `CC(C)OCCCN(Cc1ccco1)C(=O)c1cc2c(s1)-c1ccccc1OC2` was inactive: 19.7%; that for `COCc1cc(C)n(CC(=O)Nc2ccc(NC(C)=O)cc2)c(=O)c1C#N` was inactive: 4.96%.
The value for `CCN(CC)C(=O)Cn1cc(SCC(=O)Nc2cccc(C)c2)c2ccccc21` was inactive: -16.9%; that for `CC1=C(C#N)C(NC(=O)c2cccc(Cl)c2)(C(F)(F)F)C(=O)N1` (configuration not stated) was inactive: -29.4%; that for `COc1ccccc1-c1noc(-c2ccc(N3CCN(c4ccccc4)CC3)c([N+](=O)[O-])c2)n1` was inactive: 6.98%.
The value for `COc1ccc(N2CCN(c3cc(C)nc4nc(-c5ccc(C)cc5)nn34)CC2)cc1` was inactive: -1.02%; that for `Cc1cccc(C(=O)N2CCc3cc(CNC(=O)CCc4ccccc4)ccc32)c1` was inactive: -6.09%.
As for `Cc1ccc(Cl)cc1NC(=O)N1CCN(C)c2ncccc21`, the activation is inactive: -3.94%.
The value for `Cc1ccc(S(=O)(=O)c2cn(C)c3cc(N4CCN(C)CC4)c(F)cc3c2=O)cc1` was inactive: -0.155%.
As for `O=C(CSc1ncc2c(n1)-c1ccccc1N(Cc1ccc(F)cc1)S2(=O)=O)c1ccc(Cl)cc1`, the activation is inactive: -3.02%.
The value for `CCc1cc2c(cc3c(=O)n(CC(=O)N4CCN(c5cc(Cl)ccc5C)CC4)ncn32)s1` was inactive: 6.02%.
As to `CCOCCOC(=O)c1ccc(NC(=O)/C=C/c2ccc(OC)c(OC)c2)cc1`, the activation is inactive: 12.1%.
The value for `COc1ccc(Nc2c(-c3cc(Br)ccc3O)nc3ncccn23)cc1OC` was inactive: -32.2%.
The value for `COc1ccccc1C(=O)Nc1cc2c(cc1N1CCCCC1)n(C)c(=O)n2C` was inactive: -4.37%; that for `Cc1cccc(C)c1-n1ncc(C(=O)Nc2ccc3c(c2)OCCO3)c1C1CCN(C(=O)OC(C)(C)C)CC1` was inactive: -3.35%; that for `Cc1ccc(NCc2cccn2-c2nnc(N3CCC(C(=O)NCc4ccc(OC(C)C)cc4)CC3)s2)cc1` was inactive: -25.8%.
The value for `CNS(=O)(=O)c1ccc(OC)c(-c2nnc3c4ccccc4c(C)nn23)c1` was inactive: -4.53%; that for `COc1ccccc1N1CCN(S(=O)(=O)c2c(C)sc3ncn(CC(=O)N(C)c4ccc(C(C)C)cc4)c(=O)c23)CC1` was inactive: -16.6%; that for `COc1ccccc1N1CCN(C(=O)Cn2ncc3c(=O)oc4ccccc4c32)CC1` was inactive: 16.9%.
As for `Cc1cccc(N2CCN(S(=O)(=O)c3ccc4c(c3)CCCN4C(=O)C3CCC3)CC2)c1C`, the activation was inactive: -25.3%.
For the molecule `C[C@]12CCC(=O)C=C1CC[C@@H]1[C@@H]2[C@@H](O)C[C@@]2(C)[C@H]1CC[C@]2(O)C(=O)COC(=O)CCC(=O)O`, the activation was inactive: 23.6%.
On to `CCN(CC)c1ccc(NC(=O)C(Cc2ccccc2)NS(=O)(=O)c2ccc(Br)s2)c(C)c1` (configuration not stated), for which the activation is inactive: -8.62%.
The value for `O=C(Nc1ccc(C(=O)OCc2cc(=O)n3nc(C4CC4)sc3n2)cc1)c1ccc(F)cc1` was inactive: -16.4%; that for `Cc1nc(N2CCCC2)c2c(C(=O)Nc3cccc(C)c3C)c(C)oc2n1` was inactive: -8.79%.
As to `O=C(Nc1cccc(Cl)c1)c1c(NC(=O)C(F)(F)F)sc2c1CCCC2`, the activation was inactive: 37.2%.
Take `CC(=O)Nc1cccc(NC(=O)Cn2cnc3c2c(=O)n(C)c(=O)n3C)c1`: the activation was inactive: 15.1%.
As for `COc1ccc(CCNCc2c(C(=O)O)c(C)n(Cc3ccccc3C)c2C)c(OC)c1`, the activation was inactive: -31.8%.
The value for `CC(C)(C)NC[C@H](O)COc1nsnc1N1CCOCC1` was inactive: -5.92% and inactive: -2.75%; that for `COc1cc(OC)c(NC(=O)COCc2cc(-c3cccs3)on2)cc1Cl` was inactive: -13.9%.
The value for `CCOc1ccccc1N(C)C(=O)Cn1cnc2sc(C)c(S(=O)(=O)N3CCC(C)CC3)c2c1=O` was inactive: -4.11%.
As to `COc1ccc(S(=O)(=O)N(CC(=O)NCc2ccccc2OC)c2ccc(C)cc2)cc1`, the activation was inactive: -33.3%.
The value for `COc1ccccc1CCNC(=O)CCc1c(C)c2cc3c(C)coc3c(C)c2oc1=O` was inactive: -12.9%.
The value for `CN(C)CCN(Cc1ccco1)S(=O)(=O)c1cc2c(cc1Cl)NC(=O)CO2` was inactive: -6.01%; that for `Cc1nn(CCCC(=O)Nc2ccccc2C(F)(F)F)c(=O)c2c1sc1ccccc12` was inactive: -3.94%; that for `Cc1cn2c(=O)cc(COc3ccc(NC(=O)c4cccc(F)c4)cc3)nc2s1` was inactive: 3.71%.
Turning to `O=C(Cn1c(=O)n(Cc2ccco2)c(=O)c2oc3ccccc3c21)Nc1ccc(F)cc1F`, the activation was inactive: -12%.
The value for `CCC(Sc1nnc(C)n2c1cc1occc12)C(=O)Nc1ccccc1F` (configuration not stated) was inactive: -19.3%; that for `COc1cccc(NC(=O)Nc2cc(-c3cn4cccnc4n3)ccc2C)c1` was inactive: 32.8%; that for `Cn1c(=O)n(C)c2cc(NS(=O)(=O)c3ccccc3)c(NCc3ccccc3)cc21` was inactive: -15.5%.
The value for `O=C(NCCO)C(=O)Nc1c2c(nn1-c1ccc(F)cc1)CSC2` was inactive: -19.5%; that for `CCS(=O)(=O)N1CC(=O)N(c2cccc(Cl)c2C)C(C)(C(=O)NC2CCCCC2)C1` (configuration not stated) was inactive: -7.28%; that for `CCCN(c1ccccc1CC)S(=O)(=O)c1ccc2c(c1)CC(C)N2C(=O)C1CC1` (configuration not stated) was inactive: -20.2%.
The value for `CCCc1c(OCCCCc2nn[nH]n2)ccc(C(C)=O)c1O` was active: 86.6%; that for `CCN(CCCNC(=O)c1cc2cc3ccc(C)cc3nc2s1)c1ccccc1` was inactive: 5.51%; that for `COCCNC(=O)CCCN1C(=O)c2ccccc2Sc2ncccc21` was inactive: -7.54%.
Take `O=S(=O)(c1cccc(F)c1)N1CCC(c2nc3ccccc3s2)CC1`: the activation is inactive: 8.17%.
Turning to `COc1ccc(-c2nc(CSCC(=O)N3CCN(c4ccc(OC)cc4)CC3)c(C)o2)cc1`, the activation was inactive: -7.35%.
Turning to `Cc1ccc(NC(=O)c2oc3ccc(S(=O)(=O)N(C)C4CCCCC4)cc3c2C)cc1Cl`, the activation was inactive: -7.66%.
The value for `COc1cccc2c1cc1c(=O)n(CC(=O)NC3CC3)nc(C)n12` was inactive: -10.5%; that for `CC(=O)N1CCc2cc(S(=O)(=O)NC(CC(C)C)C(=O)NCc3ccccc3)ccc21` (configuration not stated) was inactive: 16.5%.
As for `O=c1c(=O)n(-c2cccc(Cl)c2)ccn1Cc1cccc(F)c1`, the activation was inactive: -14.3%.
`COc1cccc(-c2nc(CSCC(=O)NCCc3ccc(Cl)cc3)c(C)o2)c1`: the activation was inactive: -4.38%.
For the molecule `Cc1nnc(SCC(=O)Nc2ccc(Br)cc2)[nH]c1=O`, the activation is inactive: 3.99%.
For the molecule `Cc1ccc(-c2nc(N3CCN(c4ccccc4Cl)CC3)c3ccccc3n2)cc1`, the activation was inactive: -9.61%.
Consider `COc1ccc(C)cc1Nc1nc(-c2cccc(Cl)c2)c2c(n1)-c1ccccc1OC2`, for which the activation was inactive: 4.89%.
`COc1cc(-c2nc(Cn3nnc(C(=O)Nc4cc(C)cc(C)c4)c3C)c(C)o2)cc(OC)c1OC`: the activation was inactive: -5.62%.
The value for `CCCCC(CC)CNC(=O)CCCn1c(=O)[nH]c2ccsc2c1=O` (configuration not stated) was inactive: 26.7%.

(Values after PubChem BioAssay AID1346428 (National Center for Advancing Translational Sciences (NCATS), 2018).)
